System: Pseudomonas aeruginosa biofilms (MR14, AG14)
Details: MR14, MDR CF-isolate of P. aeruginosa; at 25 ng/ml

CC(S)C(C)S.[Bi] (stereo not shown) [BisBDT, bismuth-2,3-butanedithiol]
reduction in biofilm cell viability: 2 logs

— US12186283B2, “Bismuth-thiol compositions and methods of use” (Microbion Corporation, priority 2018, dated 2025)
